# The whole screen tested about 280,000 compounds, of which about 820 (0.29%) were called active. The shares of active, inactive and inconclusive entries below differ from those in the screen. Calls come from the whole dose curve; as a rule, active = well fitted curve in either direction with a large enough effect; inconclusive = small, poorly fitted or top-dose-only effect; inactive = flat fitted curve, though single readings scatter. No potency is given beside an inconclusive call; the fits are too rough.
# Assay: Total Fluorescence Counterscreen for Inhibitors of the Interaction of Thyroid Hormone Receptor and Steroid Receptor Coregulator 2
# Conditions: TRb/SRC2 Texas Red total fluorescence interference; series mostly up to 106 µM
# Procedure, shortened: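 Human TRβ ligand-binding domain (0.6 uM) and Texas Red SRC2 peptide (20 nM) in Tris buffer with 1 uM T3 and 5% DMSO were incubated with pinned compound for 5 hr at ambient temperature. Total fluorescence was computed as S + 2P (555/632 nm).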
# Potency is the fitted concentration of half-maximal effect; tags give direction and shape of the fitted curve or compound fluorescence and quenching.
row,Compound,Potency
1,CCN(C(=O)c1cc2c(s1)-c1c(C)cccc1OC2)c1cc(C)ccc1C,"inconclusive [falling, full curve, poor fit]"
2,COc1c(O)c2c(=O)cc(OC)c3c4c(OC)cc(=O)c5c(O)c(OC)c6c(c(c1C[C@@](C)(O)[C@H]6C(C)=O)c23)c54,active: 44.7 µM [fluorescent]
3,CCOc1ccc(CNC(=O)C2CCN(C3=NS(=O)(=O)C(c4ccc(C)cc4)=C3CC)CC2)cc1,"inconclusive [quencher, full curve]"
4,NS(=O)(=O)c1ccc(NS(=O)(=O)c2ccc(NC(=S)Nc3ccccc3)cc2)cc1,inconclusive
5,Nc1nc(N)c(S(=O)(=O)c2ccccc2)c(Nc2ccc(Br)cc2)n1,"inconclusive [quencher, full curve]"
6,COc1ccc(N2CCN(C(=O)CSCc3nc(-c4ccccc4Cl)oc3C)CC2)cc1,"inconclusive [falling, full curve, poor fit]"
7,O=C(c1cnc(-c2ccccc2)s1)c1ccc(Cl)cc1Cl,inactive
8,Cc1cc(C)cc(Oc2c(C(F)(F)F)oc3c(CN4CCCC(C)C4)c(O)ccc3c2=O)c1 (stereo unspecified),inactive
9,CCOC(=O)CC(NC(=O)c1cc2cc(Cl)ccc2oc1=O)c1ccc(C)cc1 (stereo unspecified),active: 14.1 µM [quencher]
10,CC1=C(C(=O)Nc2ccc(F)cc2F)C2(CCCCCC2)OC1=O,"inconclusive [falling, full curve, poor fit]"
11,CC(=O)Nc1ccc(NC(=O)CSc2ccc(C(F)(F)F)cc2[N+](=O)[O-])cc1,"inconclusive [falling, full curve, poor fit]"
12,COC(=O)C(CC(C)C)NS(=O)(=O)c1ccccc1Br (stereo unspecified),inactive
13,CC1CCN(S(=O)(=O)c2ccc3c(c2)N(CC(=O)O)C(=O)CO3)CC1,inactive
14,COc1cc(N2CCCC2)c(OC)cc1/C=C(/C#N)c1cccc(F)c1,inactive
15,Cc1c(C(=O)NCCc2ccc(S(N)(=O)=O)cc2)sc2nc3n(c(=O)c12)CCCC3,"inconclusive [falling, full curve, poor fit]"
16,CCOc1cc(CNc2ccc(O)cc2)cc(Br)c1OCc1ccccc1F,"inconclusive [fluorescent, partial curve]"
17,CC1CCN(S(=O)(=O)c2cc(C(=O)Nc3ccc(Br)cc3F)n(C)c2)CC1,"inconclusive [falling, full curve, poor fit]"
18,COc1ccc(N2CCN(C(=O)CS(=O)(=O)c3cccc4nsnc34)CC2)cc1,inconclusive
19,O=C(NCCc1csc(-c2cccnc2)n1)c1ccc(F)c(F)c1,"inconclusive [quencher, full curve]"
20,CCOc1ccc(C(=O)c2cn(Cc3ccc(F)cc3)c3ccc(F)cc3c2=O)cc1,"inconclusive [falling, partial curve, poor fit]"
21,Cc1cc(=O)cc2oc3cc(N)c(-c4c(C)cc(O)cc4O)c(C)c3nc1-2,"inconclusive [rising, partial curve, poor fit]"

row,Compound,Potency
1,CCOc1ccc(/C=C/C(=O)Nc2sc3c(c2C(=O)OC)CCC3)cc1,"inconclusive [quencher, full curve]"
2,CCN(CC)S(=O)(=O)c1ccc(N2CCOCC2)c(NC(=O)CCC2CCCCC2)c1,"inconclusive [falling, full curve, poor fit]"
3,Cc1c(C(=O)NCc2ccc3c(c2)OCO3)oc2ccc(S(=O)(=O)N3CCCC3)cc12,inactive
4,O=C(CCC(=O)N(CC(=O)NC1CCCC1)Cc1cccs1)Nc1nccs1,inactive
5,COc1cn(CC(=O)Nc2cc(C)ccc2C)c(CN2CCCCC2)cc1=O,"inconclusive [falling, full curve, poor fit]"
6,COc1ccc2nc(/C=N/NC(=O)[C@H](CCSC)NC(=O)OC(C)(C)C)ccc2c1,"inconclusive [quencher, partial curve]"
7,COc1ccccc1CNC(=O)CCCn1c(=O)c2ccccc2n(Cc2ccccc2F)c1=O,"inconclusive [quencher, full curve]"
8,OC(CNC1Cc2ccccc2C1)COc1ccc(Cl)cc1 (stereo unspecified),inactive
9,CN(C)S(=O)(=O)c1cccc(NC(=O)CSc2nc3ccccc3n2-c2ccccc2)c1,"inconclusive [falling, partial curve, poor fit]"
10,CC1CCN(C(c2ccc(N(C)C)cc2)c2nnnn2C(C)(C)C)CC1 (stereo unspecified),inactive
11,Cc1sc2c(c1C)c(=O)n(-c1cccc(C(F)(F)F)c1)c(=O)n2Cc1ccc(F)cc1,"inconclusive [falling, full curve, poor fit]"
12,O=C(CN1C(=O)CC(c2ccccc2)Sc2ccccc21)Nc1cccc(Cl)c1 (stereo unspecified),"inconclusive [falling, full curve, poor fit]"
13,Cc1ccc(CCNC(=O)C2CCN(c3nnc(-n4cccc4CNc4ccc(C)cc4)s3)CC2)cc1,"inconclusive [falling, full curve, poor fit]"
14,COc1ccc(/C=C/C(=O)Nc2nc3n(n2)C(c2ccccc2)C=C(c2ccccc2)N3)cc1 (stereo unspecified),inactive
15,COCCCNC(=O)c1cc(-c2cccnc2)nc2ccc(S(=O)(=O)N3CCC(C)CC3)cc12,"inconclusive [falling, full curve, poor fit]"
16,Clc1ccccc1CNc1nc2ccccc2c2nc(-c3cccnc3)nn12,"inconclusive [quencher, full curve]"
17,CCOc1ccc(NCc2cccn2-c2nnc(N3CCC(C(=O)NCCc4ccc(OC)c(OC)c4)CC3)s2)cc1,active: 35.5 µM [quencher]
18,CCc1ccc(C2CC(=O)Nc3c2c(C)nn3-c2nc(C)cc(C)n2)cc1 (stereo unspecified),"inconclusive [quencher, full curve]"
19,CCCn1c(/C=C/c2ccco2)nc2ccccc21,active: 3.55 µM [quencher]
20,O=C(c1ccc(C(F)(F)F)cc1)N1CCC(=O)N([C@H](COCc2ccc(Cl)cc2)Cc2ccccc2)CC1,"inconclusive [falling, full curve, poor fit]"
